Test results published in the supplement of paper PMC7826260.
The other results are listed elsewhere or left out. Each Rep nickase domain was tested in vitro on the same pool of single strands at 3 µM enzyme and 37 °C for 1 h; the strands have 90 letters, of which the middle is given. Numbers give uncut DNA relative to the enzyme-free pool, as log2; uncut sequences lie near 0, cut ones below; no hit call is given. Shares of all reads are compared; uncut strands gain when others are lost, and binding without cutting may add a little.

Experiments:
Test in all cases: uncleaved DNA left, log2 of reads against the no-enzyme library (log2 ratio); higher = less cleavage (more negative = more Rep cleavage of the k-mer); sequences stand for … in CTCGTCCG…ACCGGAGA
[1] = tested on: T1, Rep nickase domain of Muscovy duck circovirus
T1 sequence (residues 1-111, tag not shown): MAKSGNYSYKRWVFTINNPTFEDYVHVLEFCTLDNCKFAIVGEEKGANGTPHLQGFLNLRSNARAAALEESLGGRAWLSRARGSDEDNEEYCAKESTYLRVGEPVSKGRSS
Procedure: (§1)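 A pool of 90-nt single-stranded DNAs with seven random bases just before the constant AC of the nick site (name = the seven bases) was cut by 3 µM recombinant His6-SUMO-tagged Rep nickase domain (300 nM DNA, 50 mM HEPES pH 8.0, 50 mM NaCl, 1 mM MnCl2, 1 h, 37 °C, three replicates). Uncut DNA was amplified and sequenced.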

[2] = tested on: T2, Rep nickase domain of banana bunchy top virus
T2 sequence (residues 1-94, tag not shown): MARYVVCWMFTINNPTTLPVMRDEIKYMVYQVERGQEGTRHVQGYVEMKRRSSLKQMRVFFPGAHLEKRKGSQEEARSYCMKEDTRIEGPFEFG
Procedure: as §1

[3] = tested on: T3, Rep nickase domain of cabbage leaf curl virus
T3 sequence (residues 1-116, tag not shown): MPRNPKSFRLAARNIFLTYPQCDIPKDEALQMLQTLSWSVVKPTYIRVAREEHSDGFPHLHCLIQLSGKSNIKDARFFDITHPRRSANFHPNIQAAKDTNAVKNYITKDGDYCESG
Procedure: as §1

[4] = tested on: T4, Rep nickase domain of chickpea chlorotic dwarf virus
T4 sequence (residues 1-124, tag not shown): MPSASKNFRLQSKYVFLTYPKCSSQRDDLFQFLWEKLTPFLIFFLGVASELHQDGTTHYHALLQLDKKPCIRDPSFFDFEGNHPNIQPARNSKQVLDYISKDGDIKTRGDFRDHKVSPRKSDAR
Procedure: as §1

[5] = tested on: T5, Rep nickase domain of faba bean necrotic yellows virus
T5 sequence (residues 1-98, tag not shown): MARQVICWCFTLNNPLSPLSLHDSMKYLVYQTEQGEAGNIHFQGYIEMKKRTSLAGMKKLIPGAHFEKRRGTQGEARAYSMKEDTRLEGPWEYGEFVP
Procedure: as §1

[6] = tested on: T6, Rep nickase domain of maize striate mosaic virus
T6 sequence (residues 1-117, tag not shown): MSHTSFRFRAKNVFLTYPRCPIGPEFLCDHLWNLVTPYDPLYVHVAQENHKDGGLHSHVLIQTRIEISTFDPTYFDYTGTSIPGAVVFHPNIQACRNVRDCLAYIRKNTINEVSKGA
Procedure: as §1

[7] = tested on: T7, Rep nickase domain of porcine circovirus 2
T7 sequence (residues 2-116, tag not shown): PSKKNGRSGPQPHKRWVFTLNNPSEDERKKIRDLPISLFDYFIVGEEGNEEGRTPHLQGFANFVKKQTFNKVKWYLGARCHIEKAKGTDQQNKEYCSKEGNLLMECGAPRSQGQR
Procedure: as §1

[8] = tested on: T8, Rep nickase domain of tomato golden mosaic virus
T8 sequence (residues 1-124, tag not shown): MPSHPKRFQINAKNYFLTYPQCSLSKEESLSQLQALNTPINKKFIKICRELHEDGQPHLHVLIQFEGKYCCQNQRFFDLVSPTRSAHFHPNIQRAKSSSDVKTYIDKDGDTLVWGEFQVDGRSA
Procedure: as §1

[9] = tested on: T9, Rep nickase domain of tomato yellow leaf curl virus
T9 sequence (residues 1-136, tag not shown): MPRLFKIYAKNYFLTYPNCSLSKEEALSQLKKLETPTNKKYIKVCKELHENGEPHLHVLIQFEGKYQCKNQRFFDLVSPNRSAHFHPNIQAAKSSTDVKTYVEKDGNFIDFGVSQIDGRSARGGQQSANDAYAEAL
Procedure: as §1

[10] = tested on: T10, Rep nickase domain of wheat dwarf virus
T10 sequence (residues 1-137, tag not shown): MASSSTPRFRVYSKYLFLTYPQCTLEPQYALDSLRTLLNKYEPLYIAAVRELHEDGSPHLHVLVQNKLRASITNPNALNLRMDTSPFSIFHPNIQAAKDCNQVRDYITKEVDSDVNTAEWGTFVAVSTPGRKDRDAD
Procedure: as §1

Sequence | uncleaved DNA left (log2) [1] | uncleaved DNA left (log2) [2] | uncleaved DNA left (log2) [3] | uncleaved DNA left (log2) [4] | uncleaved DNA left (log2) [5] | uncleaved DNA left (log2) [6] | uncleaved DNA left (log2) [7] | uncleaved DNA left (log2) [8] | uncleaved DNA left (log2) [9] | uncleaved DNA left (log2) [10]
AGGGTTA | 0.0285 | -0.0275 | 0.205 | 0.453 | -0.0171 | 1.11 | -0.00832 | 0.031 | -0.127 | 0.0733
TACCAGT | 0.017 | 0.0779 | -0.318 | -2.28 | 0.0109 | -0.888 | -1.22 | -0.0222 | 0.051 | -0.0699
TACGCGC | 0.0225 | -0.0105 | -0.757 | -0.345 | 0.126 | -0.698 | -0.0202 | -0.04 | 0.0564 | -0.00652
CAGAGGG | 0.0952 | 0.0245 | -0.449 | -0.325 | 0.197 | -0.93 | 0.161 | 0.113 | 0.00912 | -0.0415
ACACCGA | -0.0606 | -0.166 | -0.331 | -0.14 | 0.0472 | -0.883 | 0.116 | -0.0797 | -0.204 | -0.0388
CTGCCAA | 0.0452 | 0.109 | -0.0152 | -0.241 | -0.0501 | -0.682 | -0.139 | -0.116 | 0.034 | 0.0342
TCTGACG | 0.24 | 0.106 | -0.588 | -0.553 | 0.106 | -1.14 | 0.25 | -0.00871 | -0.00333 | 0.0216
CTACTAC | -2.61 | -0.178 | -0.506 | -2.69 | -0.0248 | -0.607 | -2.7 | -0.112 | -0.149 | -0.137
CTTTCTA | -0.119 | -0.0354 | -0.117 | -1.56 | -0.11 | -0.62 | -0.292 | -0.11 | 0.0295 | 0.0218
AATCGTG | 0.0421 | -0.0701 | -0.586 | -0.742 | -0.0848 | -1.25 | 0.199 | -0.0138 | 0.164 | -0.073
CACATTG | -0.0312 | -0.033 | -0.718 | -0.604 | -0.0432 | -1.19 | 0.113 | 0.0123 | 0.133 | -0.029
GATCCCT | -0.105 | -0.00298 | 0.114 | -1.26 | -0.127 | 0.849 | -0.444 | -0.096 | -0.0293 | 0.0754
GGTTTAT | -0.0462 | -0.0517 | 0.267 | 0.99 | -0.0676 | 1.78 | -0.126 | -0.0176 | 0.0328 | -0.101
AGGCCGA | -0.0541 | -0.0546 | 0.00707 | 0.134 | -0.00337 | -0.34 | -0.000412 | 0.0173 | -0.15 | -0.0481
GTCACAA | 0.132 | 0.156 | 0.291 | 1.11 | 0.055 | 1.75 | 0.18 | 0.14 | 0.26 | 0.274
